Whole data set: some 33,000 sequences, median “E-score (-0.5 to 0.5)” near -0.035, cut for the highest 2% near 0.34. This is one part of the list.
Biological target: T1, Mot3 (UniProt P54785)
T1 sequence: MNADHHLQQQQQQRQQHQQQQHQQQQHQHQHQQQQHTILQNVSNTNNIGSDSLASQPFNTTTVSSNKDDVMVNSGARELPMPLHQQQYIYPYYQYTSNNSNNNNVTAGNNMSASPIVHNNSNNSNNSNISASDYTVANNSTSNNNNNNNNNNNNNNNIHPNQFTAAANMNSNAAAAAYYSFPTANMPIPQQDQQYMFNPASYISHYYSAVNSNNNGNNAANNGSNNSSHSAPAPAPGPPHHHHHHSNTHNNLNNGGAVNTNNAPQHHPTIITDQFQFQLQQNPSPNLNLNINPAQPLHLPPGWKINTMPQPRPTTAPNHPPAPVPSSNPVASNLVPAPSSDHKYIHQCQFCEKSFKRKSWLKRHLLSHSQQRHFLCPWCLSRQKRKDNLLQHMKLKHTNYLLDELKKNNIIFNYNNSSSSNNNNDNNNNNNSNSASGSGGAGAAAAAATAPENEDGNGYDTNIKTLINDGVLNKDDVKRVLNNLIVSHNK
Assay: PBM E-score (8-mer binding enrichment) (E-score (-0.5 to 0.5)); higher = stronger / more preferred TF binding; most listed sequences are background and not binding sites
Details: protein concentration: 200 nM; construct: GST-full length
In short: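 For each ungapped eight-base word taken together with its reverse complement, the Universal PBM Analysis Suite assigned an E-score. Binding data came from GST-tagged yeast transcription factors, applied at about 100-200 nM, on universal all-10-mer Agilent arrays made double-stranded by primer extension. Fluorescent anti-GST marked bound protein, and scans were normalised with masliner.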

Sequence	PBM E-score
ATTTAATA	0.147
AAGACGCT	-0.275
TATGAACA	0.192
GCGAGGCA	0.148
TTATCAAA	0.0771
GCGCTACC	-0.202
AAGAAGCA	0.028
ATGGAGAA	-0.0954
AGTCCGAC	-0.0975
AGAACGGA	-0.135
AGCGTTAC	-0.06
GGAAATAC	0.141
CTACAGTA	0.0852
CCTCGACA	0.0655
CTGTCAGA	-0.0883
GACAATAC	0.108
CTGCAATC	-0.0301
TAAGATGA	-0.00172
ATCCGTAG	-0.299
ATTAGAGG	-0.104
CCCAGGTC	-0.162
ATTCTTAC	0.148
CCTGCGCC	-0.0195
ACTCAAAA	-0.0489
CACCTCGA	-0.0714

Sequence	PBM E-score
AGATGGAT	-0.271
AGTCGTTC	0.0516
CATCTCTC	-0.127
AAAACTCG	0.206
TCACTGAA	-0.0937
ACGCAACG	0.211
CCCCAGAC	-0.352
CACCGTAA	0.0377
ATATAGAC	0.136
AAACCGGG	-0.212
CCAACGCC	-0.00629
ATTGCAAC	-0.102
TCATTCGA	-0.0243
TAGATAGA	0.0428
CAAGCTGG	-0.192
AGAAAGAA	-0.0361
GCTGCTGA	0.0538
AGGTGCGA	-0.188
AACCCCCG	-0.28
ATTTTTCC	0.0662
CTGGAAGA	-0.184
AACCCCAG	-0.0936
AACTGCGA	-0.314
AAAGGCCT	-0.0542
GCAGCGTA	-0.066

Sequence	PBM E-score
AAAGAACC	0.0629
CTGACCGA	-0.248
GCTCTCCA	-0.122
AACTTTCA	0.0939
AGGGATAG	-0.317
AGATCGGC	-0.214
CTAGTTCA	0.0656
GCGCGTAA	0.34
ATTTAGAC	0.0428
AGATGTAG	0.0828
CTTTTTGC	0.178
AGTCACAC	0.116
TACTGATA	0.042
CCGGGCTC	-0.278
ACGCCAAG	-0.0211
AATAAGCA	0.00176
GAACGAGC	0.103
AGGGTCGC	-0.165
CGATTCAC	-0.0992
AAGAAGCG	-0.048
AGTCTTGA	-0.109
AACTGGAC	-0.181
ATACGCAA	0.205
ACTGGGGA	-0.149
AGGACACG	0.071

Sequence	PBM E-score
AATTATCA	0.278
GAGTGACA	0.0201
GAGGACTA	-0.199
ATCTACCA	0.0595
ACCGCCTG	-0.018
CACGAACG	-0.00928
CGCTGGAG	-0.24
CTAACGTC	-0.00929
ATGCCTAA	0.278
GCGGGAAC	-0.21
GACTGCGA	-0.12
AACCTCCA	-0.259
GATGGTGA	-0.0599
CCCACCAC	-0.089
ACGGACCG	-0.224
GAACTTGA	0.095
GGTATTTA	-0.0421
AAAAGAAG	0.177
ATGCTTTC	0.133
CTAACCGC	-0.164
CCGGAGAG	-0.231
GATGATCC	-0.242
CTATAGAA	-0.0451
AGGTGGTG	-0.00552
ACTCGGGC	-0.0831

Sequence	PBM E-score
AGCACATA	-0.0205
ATGATGTA	0.226
GATGCACA	-0.142
GTTGTCGA	0.0121
ATTTCCCC	-0.115
ACCCGAGT	-0.161
ATAAGAAA	0.206
ACTAACCG	0.0779
TACCTACA	0.381
AACTTTCC	0.0113
CTTACGTA	0.211
AACGAAAA	0.0146
AACGAGAA	0.137
ATCGTAGA	0.0844
CTAACTCC	-0.141
TTATCGAA	-0.0233
TAGTCGGA	-0.134
GGCGTATA	0.0528
ACCGAACC	-0.266
ATGCTAGA	0.132
AAGTTATA	0.183
GCTAGCGA	-0.0626
ACGGAGAC	-0.0528
GATTAACA	0.338
ACAAAGCG	0.161

Sequence	PBM E-score
CGGCTCGA	-0.227
ATGGATGG	-0.226
CATCCTGG	-0.186
TCTAGTAA	0.163
ATTACCGG	-0.202
CGTAGGAA	0.351
ACAGCCGT	-0.24
ATTACTAC	0.171
TCGCGCCA	-0.114
AGACCTGG	-0.302
TCATTAGA	0.0474
AGTTTCGA	-0.164
CCATTGGC	-0.182
ATTAGCAG	-0.0234
CTTCGTGC	0.0535
AGGGCGTC	-0.112
CAACGGAC	-0.146
ATGGGCCC	-0.345
AAAGAATA	0.134
GTCCTCTA	-0.132
AGACTTCA	-0.0925
AATAAGAA	-0.0269
TCCCGACA	0.0266
ACGCCAGC	-0.221
TAGCCTCA	-0.188

Sequence	PBM E-score
CTCAATCC	0.0765
GGCGACTA	-0.176
CGCTTGCA	-0.178
CGCCGCAG	-0.206
CTCCCCTA	-0.29
ATTTTACA	0.336
CTTCAGCC	-0.21
ACGTAGCG	0.0835
ACGACAAA	0.0916
AAAACACC	0.0515
AGTCGATC	-0.35
TCCTAACA	0.214
AGCAGGCA	0.483
TACCACAA	0.23
CGATTCAG	-0.299
GCTGTCTA	-0.135
CCATTAGC	-0.205
AATTGGTA	0.113
CACTGAAG	0.0637
CGGGCCTC	-0.238
CGAGTTAA	0.143
CAAGGTCG	-0.0786
